Test results reported in PubChem BioAssay (Tox21).
This list was built around the results that the source calls inconclusive (neither active nor inactive); the mix of calls is not that of the screen. For some assays here: No potency is given beside an inconclusive call; the fits are too rough. Calls of active or inactive are those of the source. Unless noted, calls come from the whole dose curve; as a rule, active = well fitted curve in the direction sought with a large enough effect in the repeat runs; inconclusive = weak or mixed curves; inactive = no such curve, though single readings can be large; an effect the other way counts as inactive or inconclusive.

Key:
[1] = qHTS RealTime-Glo MT Cell Viability Assay in HEK293 cells - 8 hour (AID 1224887); note: nearly all actives have a fitted effect of over 50% in size; for activity change, negative = cytotoxicity: top concentration of the series differs between compounds
In short: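 Real-time viability in HEK293: signal arises when living cells convert a prosubstrate for NanoLuc in the medium, so luminescence tracks viable cell number. Compound (23 nL, DMSO) added 5 h post-seeding; kinetic reads at 0–40 h, 37 C.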

[2] = qHTS RealTime-Glo MT Cell Viability Assay in HepG2 cells - 0 hour (AID 1224889); note: nearly all actives have a fitted effect of over 50% in size
In short: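 Real-time, nonlytic viability: 600 HepG2 cells/well mixed with NanoLuc enzyme plus prosubstrate; 5 h settle, compound (DMSO) added by pintool; luminescence monitored over 40 h at 37 C.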

[3] = qHTS assay to identify small molecule antagonists of the sonic hedgehog signaling (Shh) pathway - cell viability counter screen (AID 1259367); note: nearly all actives have a fitted effect of over 55% in size
In short: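 Cytotoxicity was assessed in parallel with Shh reporter activity by measuring live-cell protease fluorescence (CellTiter-Fluor) in NIH/3T3 cells stably carrying Gli1-Luc, treated with compound under conditioned medium stimulation for 23 hr plus 1 hr reagent incubation.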

[4] = qHTS assay to identify small molecule antagonists of the androgen receptor (AR) signaling pathway using the MDA cell line in the presence of 0.5 nM R1881 - cell viability counter screen (AID 1259242); note: nearly all actives have a fitted effect of over 45% in size
In short: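 Steps: plate MDA-kb2 cells, rest 5 hr at 37C without CO2; pin in compounds in DMSO; add R1881 to 0.5 nM final; incubate 16 hr; add CellTiter-Fluor, 30 min; read fluorescence.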

[5] = target: Androgen receptor (Homo sapiens) (UniProt P10275); assay: qHTS assay to identify small molecule antagonists of the androgen receptor (AR) signaling pathway using the MDA cell line in the presence of 0.5 nM R1881 (AID 1259243); note: nearly all actives have a fitted effect of over 50% in size
Sequence of UniProt P10275 (P10275 whole entry, looked up): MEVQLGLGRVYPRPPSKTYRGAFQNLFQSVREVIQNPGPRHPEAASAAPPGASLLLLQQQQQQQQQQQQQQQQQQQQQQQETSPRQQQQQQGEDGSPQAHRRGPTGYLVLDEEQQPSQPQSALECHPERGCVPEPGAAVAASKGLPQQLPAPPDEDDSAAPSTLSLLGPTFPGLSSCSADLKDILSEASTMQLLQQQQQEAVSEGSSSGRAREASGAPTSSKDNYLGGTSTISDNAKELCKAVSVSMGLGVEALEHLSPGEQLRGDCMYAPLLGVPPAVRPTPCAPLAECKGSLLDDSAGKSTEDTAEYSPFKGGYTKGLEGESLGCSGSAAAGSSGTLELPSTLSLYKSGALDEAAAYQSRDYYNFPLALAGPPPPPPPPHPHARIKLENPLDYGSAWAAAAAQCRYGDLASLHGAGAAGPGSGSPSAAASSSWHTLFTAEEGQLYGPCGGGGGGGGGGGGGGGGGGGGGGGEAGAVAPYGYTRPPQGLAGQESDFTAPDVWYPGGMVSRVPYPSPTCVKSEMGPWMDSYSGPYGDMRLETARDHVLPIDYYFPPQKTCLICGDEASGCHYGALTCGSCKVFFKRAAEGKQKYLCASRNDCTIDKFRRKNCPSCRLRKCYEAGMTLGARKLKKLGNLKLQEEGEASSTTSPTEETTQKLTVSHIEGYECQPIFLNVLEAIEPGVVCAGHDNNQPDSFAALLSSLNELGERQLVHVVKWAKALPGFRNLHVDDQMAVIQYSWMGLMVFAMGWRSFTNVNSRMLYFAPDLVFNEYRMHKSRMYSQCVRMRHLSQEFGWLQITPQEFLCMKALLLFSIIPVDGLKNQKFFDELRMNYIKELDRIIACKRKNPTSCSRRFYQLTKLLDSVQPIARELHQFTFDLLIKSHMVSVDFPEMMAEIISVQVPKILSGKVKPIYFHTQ
In short: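 Stably transfected MDA-kb2 cells express luciferase from an MMTV promoter bearing both AR and GR response elements. Compounds plus 0.5 nM R1881 (final) were incubated 16 hr at 37C without CO2, then luminescence measured.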

[6] = qHTS assay to identify small molecule HDAC inhibitors (AID 1259364);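 note: wild-type HCT-116 cells with endogenous class I/II HDAC activity; nearly all actives have a fitted effect of over 45% in size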
In short: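 Cells (HCT-116, wild type) are seeded at 1,500 per well, incubated overnight, treated with compound in DMSO for 2 hr, then developed with HDAC-Glo I/II reagent for 30 min at room temperature.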

[7] = A CellTox Green Cytotoxicity Assay to monitor cytotoxicity in HEK293 cells - 16 hour (AID 1224888); note: nearly all actives have a fitted effect of over 35% in size
In short: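 Cells (HEK293, 600/well) and dye reagent are dispensed together. After 5 h at 37 C, 23 nL compound is pinned in. Plates stay at 37 C for 40 h with fluorescence read at 0h, 8h, 16h, 24h, 32h and 40h.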

[8] = qHTS assay to identify small molecule agonists of the sonic hedgehog signaling (Shh) pathway - cell viability counter screen (AID 1259366); note: nearly all actives have a fitted effect of over 50% in size
In short: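 CellTiter-Fluor fluorescence read-out, 1 hr at 37C, added after 23hr compound exposure. Cells: 3T3 Gli1-Luc, an NIH/3T3 clone with stably integrated Gli1-Luc reporter, plated 4hr before compound.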

[9] = target: Estrogen receptor (Homo sapiens) (UniProt P03372); assay: qHTS assay to identify small molecule antagonists of the estrogen receptor alpha (ER-alpha) signaling pathway using the BG1 cell line in the presence of 0.1 nM 17-beta-estradiol (AID 1259244); note: nearly all actives have a fitted effect of over 50% in size
Sequence of UniProt P03372 (P03372 whole entry, looked up): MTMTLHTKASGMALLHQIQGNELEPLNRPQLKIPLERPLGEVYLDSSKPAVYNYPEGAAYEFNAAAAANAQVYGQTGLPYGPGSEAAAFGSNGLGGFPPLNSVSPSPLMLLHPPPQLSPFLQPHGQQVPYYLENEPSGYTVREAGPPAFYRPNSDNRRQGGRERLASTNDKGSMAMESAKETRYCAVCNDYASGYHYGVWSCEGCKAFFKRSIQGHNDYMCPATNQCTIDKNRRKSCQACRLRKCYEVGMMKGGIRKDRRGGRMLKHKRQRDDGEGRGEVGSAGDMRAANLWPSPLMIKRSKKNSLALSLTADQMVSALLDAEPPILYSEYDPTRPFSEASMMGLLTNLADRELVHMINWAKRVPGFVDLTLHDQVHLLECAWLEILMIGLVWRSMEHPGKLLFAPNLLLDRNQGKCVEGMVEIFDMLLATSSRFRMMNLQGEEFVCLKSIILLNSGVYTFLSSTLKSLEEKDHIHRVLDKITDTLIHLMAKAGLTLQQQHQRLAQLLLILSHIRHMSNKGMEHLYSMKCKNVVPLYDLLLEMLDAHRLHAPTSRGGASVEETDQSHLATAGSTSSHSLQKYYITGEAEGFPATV
In short: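 Antagonist mode: compounds in DMSO are pinned onto VM7Luc4E2 reporter cells, 0.1 nM final 17beta-estradiol is added, and after 22 h at 37C luciferase luminescence is measured with ONE-Glo.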

[10] = qHTS assay to identify small molecule phospholipidosis (PLD) inducers (AID 1259344; active = well fitted curve in the direction sought with a large enough effect; inconclusive = small, poorly fitted or top-dose-only effect, or another doubt; inactive = no such curve, though single readings can be large; an effect the other way counts as inactive or inconclusive); details: HepG2 phospholipidosis, LipidTOX Red imaging, 24 h; PLD induction: at 38.3 µM (top of the series) unless noted
In short: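 Cells (HepG2, 900 per well) attach for 4 h, receive LipidTOX Red and compound together, incubate 24 h at 37 C, are fixed 30 min with paraformaldehyde/Hoechst, then imaged at one site per well.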

[11] = qHTS assay to identify small molecule antagonists of the estrogen receptor alpha (ER-alpha) signaling pathway using the BG1 cell line in the presence of 0.1 nM 17-beta-estradiol - cell viability counter screen (AID 1259241); note: nearly all actives have a fitted effect of over 40% in size
In short: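 Live-cell protease activity (CellTiter-Fluor fluorescence, 30 min) was read in the same wells after VM7Luc4E2 cells had been exposed to compounds with 0.1 nM 17beta-estradiol for 22 hr at 37C.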
% is set by controls: 0 for no effect and ±100 for the full control effect; potency is the fitted concentration of half-maximal effect; tags give direction and shape of the fitted curve.

CC(C)=CCC/C(C)=C\C#N
Potency [1]: inactive

Oc1ccc(O)c2c(O)cccc12
Potency [1]: inconclusive [cytotoxic, single point]

O=C(OCCOCCOCCOC(=O)c1ccccc1)c1ccccc1
Potency [1]: inconclusive [cytotoxic, partial curve] | Potency [2]: inactive | Potency [3]: inactive

CCC(=O)OC(C)(C)C1CC=C(C)CC1 (centres undefined)
Potency [1]: inactive

NS(=O)(=O)c1cc2c(cc1Cl)CN(C1CCCCC1)C2=O
Potency [1]: active: 9.52 µM

O=S(=O)(O)c1cc(Cl)c(Cl)cc1Cl
Potency [1]: inactive

CC(C)(O)CCC(C)(C)O
Potency [1]: inactive

Cc1c(Cl)c(=O)oc2cc(O)ccc12
Potency [1]: active: 43.6 µM | Potency [4]: inconclusive [rising, partial curve] | Potency [5]: inconclusive [inhibitor, partial curve] | Potency [3]: inconclusive [rising, partial curve]

Cc1ccc(C)c(OCCCC(C)(C)C(=O)O)c1
Potency [1]: inactive | Potency [2]: inconclusive [cytotoxic, partial curve] | Potency [6]: inconclusive [inhibitor, partial curve, poor fit]

C[n+]1ccccc1/C=N/O
Potency [1]: inactive

CSc1nnc(C(C)(C)C)c(=O)[nH]1
Potency [1]: inactive

O=[N+]([O-])c1ccc(CCO)cc1
Potency [7]: inactive | Potency [8]: inactive

NCCCOCCOCCOCCCN
Potency [1]: inactive | Potency [8]: inconclusive [cytotoxic, single point]

CN1[C@@H]2CC[C@H]1CC(OC(=O)c1c[nH]c3ccccc13)C2 (some centres undefined)
Potency [7]: inconclusive [activator, partial curve] | Potency [3]: inactive

Clc1cc(Cl)c2c(c1)N=C1CCCCCN1C2
Potency [1]: inconclusive [cytotoxic, partial curve] | Potency [6]: inconclusive [inhibitor, partial curve, poor fit]

CC1(O)CSC(C)(O)CS1 (centres undefined)
Potency [1]: inconclusive [rising, single point] | Potency [3]: inactive

O=C(C(=O)c1ccc(Br)cc1)c1ccc(Br)cc1
activity change, negative = cytotoxicity [1]: inactive: 2.33% [at 15.8 µM] | Potency [9]: inconclusive [inhibitor, single point]

O=C(CCCN1CCC(O)(c2ccc(Br)cc2)CC1)c1ccc(F)cc1
Potency [1]: active: 8.49 µM | Potency [10]: inconclusive [activator, single point]

CCOc1ccc(N=Nc2ccc(/C=C/c3ccc(N=Nc4ccc(OCC)cc4)cc3S(=O)(=O)O)c(S(=O)(=O)O)c2)cc1
Potency [7]: inactive | Potency [11]: active: 24 µM | Potency [4]: inconclusive [cytotoxic, partial curve]

CCOc1ccc(NC(=O)CC(C)=O)cc1
Potency [7]: inactive | Potency [6]: inconclusive [inhibitor, partial curve]

C=C(C)C(=O)OCC
Potency [2]: inactive

Cc1ccc2ccccc2c1[N+](=O)[O-]
Potency [7]: inactive

CCC(C)C1CCCCC1=O (centres undefined)
Potency [7]: inactive

Cc1nc2ccc(CN(C)c3ccc(C(=O)N[C@@H](CCC(=O)O)C(=O)O)s3)cc2c(=O)[nH]1
Potency [7]: inconclusive [activator, single point] | Potency [10]: inconclusive [activator, partial curve, poor fit]

O=[N+]([O-])c1ccc2[nH]ncc2c1
Potency [2]: inactive

CC(=O)Nc1ccc(N)cc1
Potency [7]: inactive | Potency [5]: inactive

CCCCCCCCSCC
Potency [7]: inactive

CCCCCc1cccc(=O)o1
Potency [7]: inconclusive [activator, single point]

CC(C)C/C=C(\C=O)c1ccccc1
Potency [1]: inactive | Potency [8]: inconclusive [cytotoxic, partial curve] | Potency [3]: inconclusive [cytotoxic, partial curve]

CC(C)=CCCC(C)CCOC=O (centres undefined)
Potency [1]: inactive | Potency [3]: inconclusive [cytotoxic, single point]

Cc1ccc(C(=O)C(C)CN2CCCCC2)cc1 (centres undefined)
Potency [7]: inactive | Potency [8]: inactive | Potency [3]: inactive

CCOC(=O)C1=NN(c2ccccc2)C(=O)C1
Potency [7]: inactive | Potency [6]: inactive

C/C=C/C(=O)OCC(C)C
Potency [7]: inactive | Potency [11]: inactive | Potency [4]: inactive | Potency [3]: inactive

COc1ccc(CN(CCN(C)C)c2ncccn2)cc1
Potency [7]: inconclusive [activator, partial curve, poor fit] | Potency [10]: inactive

CC(C)(C)NCC(O)COc1ccc(NC(=O)NC2CCCCC2)cc1 (centres undefined)
Potency [7]: inconclusive [activator, partial curve, poor fit] | Potency [6]: inactive | Potency [3]: inactive

CC12CCC(CC1=O)C2(C)C (centres undefined)
Potency [7]: inactive

Nc1ncn([C@H]2C[C@H](O)[C@@H](CO)O2)c(=O)n1
Potency [7]: inactive

Nc1ccc(-c2ccc(F)cc2)cc1
Potency [1]: inconclusive [cytotoxic, partial curve] | Potency [6]: inconclusive [inhibitor, partial curve] | Potency [8]: inconclusive [cytotoxic, partial curve, poor fit]

O=C1CCN(c2ccccc2)N1
Potency [7]: inactive | Potency [9]: inactive

O=S(=O)(O)c1cc(I)c(O)c2ncccc12
Potency [1]: inactive | Potency [6]: inactive

COc1cccc(O)c1
Potency [2]: inactive

CCOC(CN1CCN(CC(C)C(=O)c2ccccc2)CC1)c1ccccc1 (centres undefined)
Potency [1]: inconclusive [cytotoxic, single point] | Potency [10]: inconclusive [activator, partial curve, poor fit]

CCCCCCCCCCOS(=O)(=O)O
Potency [7]: inconclusive [activator, partial curve, poor fit]

CN1CCC(=C2c3ccccc3CC(=O)c3sccc32)CC1
Potency [1]: inactive | Potency [10]: inconclusive [activator, partial curve, poor fit]

CO[C@@]1(NC(=O)CSCC#N)C(=O)N2C(C(=O)O)=C(CSc3nnnn3C)CS[C@@H]21
Potency [7]: inactive

Cc1ccc(/C=N/n2c(-c3ccccc3)csc2=S)cc1
Potency [7]: inconclusive [activator, partial curve]

CC(=O)C(C)C
Potency [2]: inconclusive [cytotoxic, single point]

CC(COc1ccccc1)NN (centres undefined)
Potency [7]: inactive

Nc1ccccc1[N+](=O)[O-]
Potency [7]: inactive

CC1=C(O)C(=O)C(C)O1 (centres undefined)
Potency [2]: inactive

CCCCOC(=O)COc1ccc(Cl)cc1Cl
Potency [7]: inactive

C[C@@H]1C[C@H]2[C@@H]3CCC4=CC(=O)C=C[C@]4(C)[C@@]3(F)[C@@H](O)C[C@]2(C)[C@H]1C(=O)CO
Potency [10]: inconclusive [activator, single point]

C[C@@H](N)C(=O)O
Potency [10]: inactive

CC(C)C[C@H](NC(=O)OCC1c2ccccc2-c2ccccc21)C(=O)O
Potency [6]: inactive

CC1(C)O[C@@H]2C[C@H]3[C@@H]4CCC5=CC(=O)C=C[C@]5(C)[C@H]4[C@@H](O)C[C@]3(C)[C@]2(C(=O)CO)O1
Potency [8]: inactive

CC(=O)OCC(=O)[C@@]12N=C(C)O[C@@H]1C[C@H]1[C@@H]3CCC4=CC(=O)C=C[C@]4(C)[C@H]3[C@@H](O)C[C@@]12C
Potency [3]: inactive

CCCCOCCOCCOCCOCCO
Potency [3]: inactive

Cc1ccc2sc3cccc(C)c3c2c1
Potency [5]: active: 8.63 µM

CC(=O)Nc1ccccc1
Potency [9]: inconclusive [inhibitor, partial curve, poor fit]

O=c1[nH][nH]c2ccccc12
Potency [9]: inconclusive [inhibitor, partial curve, poor fit]

CCCCCCCCCCCCCCCC(=O)OC/C=C(C)/C=C/C=C(C)/C=C/C1=C(C)CCCC1(C)C
Potency [10]: inconclusive [activator, single point]

OC(CCCN1CCCCC1)(c1ccccc1)c1ccccc1
Potency [10]: inconclusive [activator, single point]

O=C(O)c1cccnc1Nc1cccc(C(F)(F)F)c1
Potency [6]: inconclusive [inhibitor, partial curve]

CC(C)=NNC(N)=S
Potency [3]: inconclusive [cytotoxic, partial curve, poor fit]

C=CC(=C)CC/C=C(\C)CCC=C(C)C
viability change, negative = cytotoxic [3]: inactive: -4.46% [at 19 µM]

O=C(c1ccc(O)cc1)c1ccc(O)cc1
Potency [6]: inconclusive [inhibitor, partial curve]

c1ccc(SCCSc2ccccc2)cc1
Potency [6]: inconclusive [inhibitor, partial curve]
